In the BET-seq Pho4 binding data (Le et al. 2018):
This is one part of the list. The energies were worked out here from pooled read counts, against the library average; single values are noisy.

The sequences below were run against T1, Pho4 (S. cerevisiae) (UniProt P07270) (assay: relative binding free energy (BET-seq); higher = weaker binding). Conditions: reference: library average.
T1 sequence: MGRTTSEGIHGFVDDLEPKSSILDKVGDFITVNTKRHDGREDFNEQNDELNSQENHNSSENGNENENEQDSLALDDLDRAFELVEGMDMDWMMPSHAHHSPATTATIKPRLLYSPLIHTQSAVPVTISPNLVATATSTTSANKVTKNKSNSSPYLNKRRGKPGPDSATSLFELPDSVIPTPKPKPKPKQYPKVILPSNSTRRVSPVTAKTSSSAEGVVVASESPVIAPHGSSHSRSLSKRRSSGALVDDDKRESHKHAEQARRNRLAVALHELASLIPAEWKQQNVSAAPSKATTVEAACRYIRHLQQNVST

Sequence | relative binding free energy [kcal/mol]
TCGCTCACGTGGGGGA | -0.04
CTTGTCACGTGGAAGT | 0.12
CTATTCACGTGATGGA | 0.36
TTTCTCACGTGTAGGC | 0.25
AAAGGCACGTGGTATG | -0.31
AAGGGCACGTGAGAAT | 0.14
GTGTGCACGTGCAGCG | -0.13
GTTTTCACGTGGAGTC | 0.37
ATGGTCACGTGGCTGT | 0
AGTGACACGTGGGAGT | -0.15
ATGTACACGTGTGAGG | 0.17
TAAGGCACGTGTACGT | -0.05
ATTAGCACGTGGTTGA | -0.18
AATGTCACGTGTATGC | 0.16
TTGTTCACGTGTCGGT | 0.24
GTCAGCACGTGTGTGC | 0.02
AGTAGCACGTGTGGAT | 0
TGGTACACGTGGTGGT | 0.05
TCCAGCACGTGGGTTT | -0.09
GGGGGCACGTGGTATA | -0.06
AAAGACACGTGTGTTT | 0.11
TAAGTCACGTGAGGGC | 0.28
ATGGCCACGTGTGTTG | -0.17
AGAGACACGTGGAAGG | -0.03
AAGTACACGTGGGAGA | 0.09

Sequence | relative binding free energy [kcal/mol]
GAATGCACGTGGTTTT | 0.2
TAGTGCACGTGGGTGT | -0.17
AGATACACGTGAGGGA | 0.26
ATTGCCACGTGGTGAT | -0.2
AGGCGCACGTGTGTTT | -0.08
TAGGGCACGTGAACGG | 0.08
GAGCTCACGTGCTGGT | 0.24
TTGGGCACGTGGTCTT | -0.03
TCTAGCACGTGGGGTA | -0.2
CTTAGCACGTGCATGT | 0.01
GGTGTCACGTGAGTAC | 0.27
TGAGGCACGTGGTGAC | -0.21
AAATGCACGTGTTGGC | -0.07
GGATCCACGTGTTGTT | 0.12
TGCATCACGTGTTGGG | 0.15
GTGGTCACGTGGTGTG | 0.13
GTTTCCACGTGCTTGT | 0.11
ACTGGCACGTGTATGG | -0.1
GGACTCACGTGGGTCA | 0.25
TATGGCACGTGGTCGT | -0.24
GGTTTCACGTGCGGGG | 0.34
TTGGGCACGTGGACCG | -0.1
GGTATCACGTGTTATT | 0.21
GTTATCACGTGGGGGA | 0.05
AGGATCACGTGTAGTC | 0.3

Sequence | relative binding free energy [kcal/mol]
GGGGGCACGTGGCGGT | -0.13
TGTATCACGTGCGTAG | 0.06
CGCAGCACGTGCGGGG | -0.12
GGGGACACGTGAGAGT | 0.27
GTTTACACGTGAGGCG | 0.43
TGTATCACGTGCATAT | 0
TCGTTCACGTGGTTCG | 0.35
GATGTCACGTGATGGT | 0.4
AGGTGCACGTGACGCG | 0.02
CGGGGCACGTGCGGAA | -0.13
TTACACACGTGGAGGT | 0.04
AAGTGCACGTGTTTTA | -0.01
AGATCCACGTGGGGGT | -0.11
GGGGTCACGTGTACAG | 0.14
GTTAGCACGTGTTGTG | -0.14
AGTTACACGTGATTGG | 0.15
TGAGTCACGTGGTGAC | -0.04
GTGACCACGTGTTGGT | 0.02
CAGTGCACGTGTTGGG | -0.06
CCTGTCACGTGGGGGT | -0.06
CGGTGCACGTGGGTTC | -0.03
TGTTGCACGTGAGGCT | 0.27
CTAATCACGTGGGGGT | -0.12
AGGTTCACGTGAGAGG | 0.45
GTTGTCACGTGGTGTG | 0.17

Sequence | relative binding free energy [kcal/mol]
TACGACACGTGGTGGT | 0.02
ATTGGCACGTGTGCCT | -0.07
TGAACCACGTGAGGTT | 0.25
ATTATCACGTGGTGTG | -0.02
TGGTTCACGTGTCTTG | 0.25
AGGTGCACGTGGCCGG | -0.21
CGGTACACGTGTTTTT | 0.12
GTTTGCACGTGTTGTG | 0.13
TGAATCACGTGCGTGT | -0.15
TTTCTCACGTGTTGTC | 0.2
TAAGGCACGTGGGAGC | -0.19
AGGCTCACGTGTTGGG | 0.27
AGGTGCACGTGGGTCA | -0.16
AGGTTCACGTGGAGCG | 0.34
CTTTACACGTGTGGGC | 0.21
ATGACCACGTGTTGTG | -0.19
TGCCGCACGTGAGGTT | 0.05
GAATGCACGTGTATGG | 0.14
AGTTTCACGTGCGTGC | 0.13
ATCGGCACGTGTGCAG | 0.02
GGAAGCACGTGGGCAG | -0.32
TATTGCACGTGGCGAT | -0.08
TTGATCACGTGACGTT | 0.19
GGGGGCACGTGGTCCA | -0.22
GGGGACACGTGGCCTT | 0.01

Sequence | relative binding free energy [kcal/mol]
TTCAACACGTGATTGT | 0.13
GGGGACACGTGGGAAA | 0.07
TGAGGCACGTGAAAGG | 0.19
TCTGTCACGTGGGGGA | -0.04
CTGGACACGTGTGGCG | 0.05
AAGGTCACGTGTGGCC | 0.19
ATGTTCACGTGTATTA | 0.2
TAATTCACGTGGTGAG | 0.2
TGTTGCACGTGGGCAT | -0.15
GGGATCACGTGTCTGT | 0.12
TTAGGCACGTGTAGCA | -0.13
GCTTGCACGTGTAGTA | 0.09
TTATGCACGTGGTCTG | -0.14
GGGTGCACGTGAACGA | 0.33
TATGGCACGTGGGGTT | -0.12
CGCGTCACGTGGAGTG | 0.11
GTGGACACGTGTGTTC | 0.26
GGGGGCACGTGCGAAA | -0.05
CGGCGCACGTGGGGAG | -0.26
TTGGCCACGTGTTTTC | 0.12
TTTAGCACGTGACGTT | -0.05
AGTTCCACGTGAAGGG | 0.33
TGTTTCACGTGTCCTG | 0.4
AAGTGCACGTGGTGGA | -0.13
CTTTTCACGTGAGGAT | 0.35

Sequence | relative binding free energy [kcal/mol]
TAATGCACGTGAGGTC | 0.13
CTTCTCACGTGGGTGG | 0
ATTTGCACGTGAAGGA | 0.32
GAAGACACGTGATGGA | 0.42
TGTTTCACGTGTATGA | 0.34
AGATTCACGTGTAAGG | 0.38
TGGCTCACGTGGACGG | 0.23
AGAAGCACGTGGCGGT | -0.19
TATTTCACGTGTCAGG | 0.24
TTGGTCACGTGGTCGG | 0.13
GACGGCACGTGTGTGA | -0.04
GGCTTCACGTGTTGTG | 0.2
TGATTCACGTGGGCGG | 0.04
TATTGCACGTGAGTGC | 0.03
TTAATCACGTGAGTTT | 0.33
GGGTCCACGTGAATGT | 0.2
ATTTGCACGTGTTTGA | -0.02
GGGGACACGTGGCTGG | -0.17
GGTTGCACGTGGAGTA | 0.1
TTAAACACGTGGCGAT | 0.1
GTCTGCACGTGTGGAA | 0.11
